The supplement of paper PMC9446081
The campaign covered roughly 39,000 compounds. About 220 (0.56%) showed activity. The list shows a part of the results.
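Also: static incubation at 37 °C against the wild-type strain, values averaged over two biological replicates.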

What follows are compounds tested on Escherichia coli K-12 BW25113 (assay: relative growth (OD600 normalised to plate interquartile mean) (fraction); higher = less growth inhibition, active = 0.2 or less). Conditions: 50 µM; LB; incubation time: overnight (16-24 h).
`C[C@@H]1CN([C@H](C)CO)C(=O)c2cccc(NC(=O)NC3CCCCC3)c2O[C@@H]1CN(C)Cc1ccc(-c2ccccc2)cc1` was tested, and the relative growth was inactive: 0.951.
With `C[C@H]1CN([C@@H](C)CO)C(=O)c2cc(NC(=O)Cn3cnnn3)ccc2O[C@H]1CN(C)S(C)(=O)=O` the relative growth was inactive: 1.01.
For `CCCN(C)C[C@H]1OCCCC[C@H](C)Oc2ccc(NC(=O)Nc3ccc(C(F)(F)F)cc3)cc2C(=O)N([C@@H](C)CO)C[C@H]1C`, the relative growth was inactive: 0.861.
In the case of `C[C@@H]1CN([C@H](C)CO)C(=O)c2cc(C#Cc3cccnc3)cnc2O[C@H]1CN(C)Cc1ccc(F)cc1`, the relative growth is reported as inactive: 0.998.
For `COc1ccc(CN(C)C[C@@H]2OCCCC[C@H](C)Oc3ccc(NC(=O)Nc4ccc5c(c4)OCO5)cc3C(=O)N([C@@H](C)CO)C[C@H]2C)cc1`, the relative growth was inactive: 0.984.
In the case of `C[C@H](CO)N1C[C@H](C)[C@@H](CN(C)S(=O)(=O)c2cn(C)cn2)Oc2ccc(NC(=O)NC3CCCCC3)cc2C1=O`, the relative growth is reported as inactive: 0.996.
`COc1ccc(NC(=O)Nc2cccc3c2O[C@H](CN(C)S(=O)(=O)c2cn(C)cn2)[C@@H](C)CN([C@H](C)CO)C3=O)cc1` was tested, and the relative growth was inactive: 1.01.
For `Cc1noc(C)c1NC(=O)Nc1cccc2c1O[C@@H](CN(C)C(=O)Nc1ccc(C(F)(F)F)cc1)[C@@H](C)CN([C@H](C)CO)C2=O`, the relative growth was inactive: 0.98.
For `O=C(C1=C[C@H](C2CC2)C[C@H](OCc2ccc(CO)cc2)O1)N1CCN(Cc2ccc3c(c2)OCO3)CC1`, the relative growth was inactive: 0.991.
`C[C@H]1CN([C@@H](C)CO)C(=O)Cc2cc(NC(=O)Nc3ccc(C(F)(F)F)cc3)ccc2O[C@H]1CN(C)C(=O)Nc1ccccc1` was tested, and the relative growth was inactive: 0.997.
`C[C@H](CO)N1C[C@H](C)[C@@H](CN(C)Cc2ccc(C(=O)Nc3ccccc3N)cc2)Oc2ccc(NC(=O)Cn3cnnn3)cc2C1=O` was tested, and the relative growth was inactive: 0.983.
For `C[C@@H]1CN([C@H](C)CO)C(=O)c2cc(C3=CCCC3)cnc2O[C@H]1CN(C)C(=O)c1ccc2c(c1)OCO2`, the relative growth was inactive: 1.03.
With `O=C1NCCN1c1cccnc1` the relative growth was inactive: 1.01.
`O=C(C[C@@H]1CC[C@H]2[C@@H](COC[C@H](O)CN2S(=O)(=O)c2cccc(F)c2)O1)NCc1ccc(Cl)c(Cl)c1` was tested, and the relative growth was inactive: 0.995.
With `C[C@H]1CCCCO[C@@H](CN(C)S(=O)(=O)c2ccccc2)[C@@H](C)CN([C@@H](C)CO)C(=O)c2cc(NC(=O)C3CCCCC3)ccc2O1` the relative growth was inactive: 1.02.
In the case of `C[C@@H]1CN([C@@H](C)CO)C(=O)Cc2cc(NS(=O)(=O)c3ccccc3)ccc2O[C@H]1CN(C)S(=O)(=O)c1cccs1`, the relative growth is reported as inactive: 0.993.
For `COc1ccc2c3c(n(c2c1)C)[C@H](CO)N(C[C@]13CCN(CC1)Cc1ccncc1)C(=O)CN1CCOCC1`, the relative growth was inactive: 0.995.
For `NCc1nncn1-c1ccc(F)cc1`, the relative growth was inactive: 1.
With `COc1ccc(NC(=O)Nc2ccc3c(c2)C(=O)N([C@H](C)CO)C[C@@H](C)[C@@H](CN(C)C(=O)C2CCCCC2)OCCCC[C@@H](C)O3)cc1` the relative growth was inactive: 0.978.
For `NC1CCC(N2CCC3(CC2)CC(=O)N(Cc2cc(F)cc(F)c2)C3)CC1` (stereo unspecified), the relative growth was inactive: 1.01.
With `C[C@H]1CCCCO[C@H](CN(C)C(=O)NC2CCCCC2)[C@@H](C)CN([C@@H](C)CO)C(=O)c2cc(NC(=O)c3ccncc3)ccc2O1` the relative growth was inactive: 0.971.
For `S=C(c1cccs1)N1CCCC1`, the relative growth was inactive: 0.987.
With `CC(/C=C/C(=O)NO)=C\c1ccccc1OCc1cn(CCNC(=O)[C@@H](NS(=O)(=O)c2ccc(C)cc2)C(C)C)nn1` the relative growth was inactive: 0.996.
`O=C1CCC(N2C(=O)c3ccccc3C2=O)C(=O)N1` (stereo unspecified) was tested, and the relative growth was inactive: 1.09.
For `Cc1ccc(S(=O)(=O)N2CCOCC2)cc1NC(=O)CN1C(=O)CN(C)C1=O`, the relative growth was inactive: 1.02.
For `COc1ccc2c3c(n(c2c1)C)[C@H](CO)N(CC1CC1)C[C@]13CCN(CC1)S(=O)(=O)c1cn(cn1)C`, the relative growth was inactive: 1.03.
In the case of `CN(C)CCCC[C@@H]1NC(=O)[C@H]2C[C@@H](C(=O)NCCCCCCNC(=O)CS)[C@@H](c3ccc(O)cc3)N2C1=O`, the relative growth is reported as inactive: 0.963.
For `C[C@H](CO)N1C[C@H](C)[C@@H](CN(C)C(=O)Nc2cccc(F)c2)Oc2ncc(Br)cc2C1=O`, the relative growth was inactive: 0.958.
In the case of `C[C@H](N)C(=O)N[C@@H](C)P(=O)(O)O`, the relative growth is reported as inactive: 0.973.
For `Cc1noc(C)c1NC(=O)N(C)C[C@@H]1Oc2c(NC(=O)C3CCOCC3)cccc2C(=O)N([C@@H](C)CO)C[C@@H]1C`, the relative growth was inactive: 0.985.
In the case of `C[C@@H]1CCCCO[C@@H](CN(C)C(=O)c2ccccc2)[C@H](C)CN([C@H](C)CO)C(=O)c2cc(NS(=O)(=O)c3cccs3)ccc2O1`, the relative growth is reported as inactive: 1.02.
In the case of `Cc1noc(C)c1S(=O)(=O)Nc1ccc2c(c1)C(=O)N([C@H](C)CO)C[C@@H](C)[C@@H](CN(C)C)OCCCC[C@H](C)O2`, the relative growth is reported as inactive: 1.
In the case of `Cc1noc(C)c1S(=O)(=O)N(C)C[C@@H]1Oc2ccc(NC(=O)Cn3cnnn3)cc2CC(=O)N([C@@H](C)CO)C[C@H]1C`, the relative growth is reported as inactive: 0.968.
`C[C@@H]1CCCCO[C@H](CN(C)Cc2ccc(C(F)(F)F)cc2)[C@@H](C)CN([C@@H](C)CO)C(=O)c2cc(NS(=O)(=O)c3ccccc3)ccc2O1` was tested, and the relative growth was inactive: 0.985.
For `CN(C)CCCNC(=O)C[C@@H]1CC[C@@H]2[C@H](COC[C@@H](O)CN2S(=O)(=O)c2ccccc2)O1`, the relative growth was inactive: 0.995.
`C[C@@H]1CN([C@@H](C)CO)C(=O)c2cc(NS(=O)(=O)c3cccs3)ccc2O[C@H]1CN(C)CC1CC1` was tested, and the relative growth was inactive: 0.974.
`C[C@H]1CN([C@@H](C)CO)C(=O)CCCn2cc(nn2)CO[C@@H]1CN(C)C(=O)Nc1ccc(N2CCN(C)CC2)cc1` was tested, and the relative growth was inactive: 0.979.
In the case of `C[C@@H]1CN([C@@H](C)CO)C(=O)c2cc(NC(=O)Nc3ccc(F)cc3)ccc2O[C@@H](C)CCCCO[C@H]1CN(C)S(=O)(=O)c1cccs1`, the relative growth is reported as inactive: 1.03.
`Cc1noc(C)c1S(=O)(=O)Nc1ccc2c(c1)C(=O)N([C@@H](C)CO)C[C@@H](C)[C@H](CN(C)C(=O)NC(C)C)O2` was tested, and the relative growth was inactive: 1.01.
In the case of `C[C@@H]1CCCCO[C@@H](CN(C)Cc2ccc(C(F)(F)F)cc2)[C@H](C)CN([C@H](C)CO)C(=O)c2cc(NC(=O)Nc3cccc4ccccc34)ccc2O1`, the relative growth is reported as inactive: 1.03.
`C[C@H]1CN([C@@H](C)CO)C(=O)c2cc(C#CC3CCCCC3)cnc2O[C@@H]1CN(C)C(=O)c1ccncc1` was tested, and the relative growth was inactive: 1.02.
In the case of `COc1ccc(S(=O)(=O)Nc2ccc3c(c2)C(=O)N([C@@H](C)CO)C[C@@H](C)[C@H](CN(C)Cc2ccc(-c4ccccc4)cc2)O3)cc1`, the relative growth is reported as inactive: 0.995.
`C[C@@H]1CN([C@H](C)CO)C(=O)c2cccc(NC(=O)Nc3ccc(C(F)(F)F)cc3)c2O[C@@H]1CN(C)S(C)(=O)=O` was tested, and the relative growth was inactive: 0.864.
In the case of `C[C@H]1CN([C@@H](C)CO)C(=O)c2cc(NC(=O)NC3CCCCC3)ccc2O[C@@H]1CN(C)Cc1ccc(C(F)(F)F)cc1`, the relative growth is reported as inactive: 0.99.
In the case of `C[C@H]1CCCCO[C@@H](CN(C)C(=O)Nc2ccc(C(F)(F)F)cc2)[C@@H](C)CN([C@@H](C)CO)C(=O)c2cc(NS(C)(=O)=O)ccc2O1`, the relative growth is reported as inactive: 1.01.
`C[C@@H]1CN([C@@H](C)CO)C(=O)c2cc(NC(=O)NC3CCCCC3)ccc2O[C@@H](C)CCCCO[C@H]1CN(C)C(=O)Cc1ccccc1` was tested, and the relative growth was inactive: 0.884.
With `CCCNC(=O)Nc1ccc2c(c1)C(=O)N(C)C[C@@H](OC)[C@@H](C)CN(C(=O)C1CCOCC1)[C@@H](C)CO2` the relative growth was inactive: 0.994.
For `[N-]=[N+]=Nc1ccccc1[C@@H]1OC(c2ccc(OCCCO)cc2)=N[C@]1(CCS(=O)(=O)c1ccccc1)C(=O)NC[C@@H](O)CO`, the relative growth was inactive: 1.
`C[C@@H]1CCCCO[C@@H](CN(C)Cc2ccncc2)[C@H](C)CN([C@@H](C)CO)C(=O)c2cc(NC(=O)Nc3ccc(F)cc3)ccc2O1` was tested, and the relative growth was inactive: 1.01.
`N[C@H]1CCc2nc3ccccc3c(=O)n2[C@@H]1c1ccsc1` was tested, and the relative growth was inactive: 0.989.
For `C=CCCCCCCCCC(=O)O`, the relative growth was inactive: 0.954.
With `O=C1[C@H]2C=NN[C@@H]2C(=O)N1Cc1ccccc1` the relative growth was inactive: 0.97.
In the case of `C[C@@H]1CN([C@@H](C)CO)C(=O)c2cc(C#CC3CCCC3)cnc2O[C@H]1CN(C)C(=O)Cc1ccccn1`, the relative growth is reported as inactive: 0.97.
For `C[C@@H]1CN([C@H](C)CO)C(=O)Cc2cc(NS(=O)(=O)c3ccccc3)ccc2O[C@H]1CN(C)CC1CC1`, the relative growth was inactive: 0.997.
In the case of `CCCCc1nc(Cl)c(CO)n1Cc1ccc(-c2ccccc2-c2nnn[nH]2)cc1`, the relative growth is reported as inactive: 1.01.
`Clc1ccc([C@H]2CC(C3CC3)=NN2c2ccccc2)cc1` was tested, and the relative growth was inactive: 1.04.
With `CO[C@H](CN(C)C(=O)Nc1ccc(C(F)(F)F)cc1)[C@@H](C)CN(Cc1ccccc1Cl)[C@@H](C)CO` the relative growth was inactive: 1.03.
With `C[C@@H]1CCCCO[C@@H](CN(C)Cc2ccc3c(c2)OCO3)[C@H](C)CN([C@H](C)CO)C(=O)c2cc(NC(=O)Nc3ccc(F)cc3)ccc2O1` the relative growth was inactive: 0.972.
With `O=C1O[C@H](c2ccccc2)[C@H](c2ccccc2)N2[C@H]1[C@@H](C(=O)N1CCCCCCC1)[C@]1(C(=O)Nc3ccc(C#CC4(O)CCCCCC4)cc31)[C@H]2c1ccccc1OCCO` the relative growth was inactive: 1.03.
With `C[C@H]1CN([C@@H](C)CO)C(=O)c2c(c3ccccc3n2C)-c2ccccc2CO[C@@H]1CN(C)CC1CCCCC1` the relative growth was inactive: 1.01.
With `Cc1noc(C)c1NC(=O)N(C)C[C@@H]1Oc2ccc(NS(=O)(=O)c3ccccc3)cc2CC(=O)N([C@H](C)CO)C[C@H]1C` the relative growth was inactive: 0.979.
